Among all 390,000 compounds or so, about 930 (0.24%) were called active. The inconclusive results got no clear call from the source; some entries with a clear call stand among them for comparison. Calls come from the whole dose curve; as a rule, active = well fitted activation curve with a large enough effect; inconclusive = small, poorly fitted or top-dose-only effect; inactive = no such curve, though single readings can be large or run the other way. Where the call is inconclusive, the potency comes from a doubtful curve fit.
assay: qHTS for Suppressors of FUS Proteinopathy: Primary screen using FUS-linked yeast assay; note: nearly all actives have a fitted effect of over 55% in size;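 for growth rescue (activation): plate controls were DMSO vehicle for no effect and reference control for full effect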; conditions: S. cerevisiae FUS-expressing, OD600, 24 h; Potency: growth rescue; growth rescue (activation): at 76.6 µM (top of the series)
Method in brief: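 FUS-expressing yeast, raffinose-pregrown, induced in 2% galactose minimal medium at OD 0.005; compounds in a dilution series, 24hr at 30C. Growth restoration read as absorbance at 600 nm. CP55940 positive control, DMSO negative.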
Potency is the fitted concentration of half-maximal effect; tags give direction and shape of the fitted curve.

| Structure (SMILES) | Potency | growth rescue (activation) |
| --- | --- | --- |
| COc1ccccc1NC(=O)CC(=O)CSc1nnc(-c2ccc(C)cc2)n1C | inconclusive: 44.7 µM [activator, single point] |  |
| COc1ccc(-n2cc(-c3ccccc3)c3c(Nc4ccc(OC)c(OC)c4)ncnc32)cc1 | inconclusive: 31.6 µM [activator, single point] |  |
| CCn1c(C)c(C)c2cc(C(=O)NCc3ccc(F)cc3)ccc21 | inconclusive: 50.1 µM [activator, single point] |  |
| COc1ccc(CNC(=O)C[C@H]2C[C@H](C(=O)N3CCOCC3)[C@@]3(C)c4[nH]c5ccc(Cl)cc5c4CCN3C2=O)cc1OC |  | inactive: 31.5% |
| CC(C)(C)c1ccc(Nc2n[nH]c3ccccc23)cc1 | inconclusive: 7.08 µM [activator, full curve] |  |
| Cc1ccc(/C=N/NC(=O)CSc2nnc(-c3ccc(Cl)cc3)n2-c2ccccc2)o1 | inconclusive: 25.1 µM [activator, partial curve] |  |
| COc1cccc(CNc2nc3cc(-c4cscc4C)sc3c(=O)n2C)c1 | inconclusive: 28.2 µM [activator, single point] |  |
| COc1ccc(CCNC(=S)N2CCC(C(=O)c3ccc(F)cc3)CC2)cc1OC |  | inactive: 40.6% |
| O=C1CCCc2cc3c(cc21)CC1(C3)Cc2cc3c(cc2C1)C(=O)CCC3 |  | inactive: 4.82% |
| CC1(c2nnc(-c3ccccc3)o2)CC(c2ccc([N+](=O)[O-])cc2)=NO1 (stereo not given) | inconclusive: 17.8 µM [activator, partial curve] |  |
| Cc1ccc(Sc2c(C)nn(C(=O)c3cccc(S(=O)(=O)N4CCOCC4)c3)c2C)cc1 | inconclusive: 22.4 µM [activator, partial curve, poor fit] |  |
| Cc1ccc2[nH]c(=O)cc(C(=O)OCC(=O)c3ccccc3)c2c1 | inconclusive: 22.4 µM [activator, partial curve, poor fit] |  |
| COc1ccc(C(=O)N2CCCCC2c2cc(C(=O)Nc3ccccc3)no2)cc1 (stereo not given) | inconclusive: 28.2 µM [activator, single point] |  |
| CC(C)=CCC[C@H](C)CC1Cc2[nH]c(=S)[nH]c(=O)c2C(c2ccc(Cl)cc2)O1 (stereo not given in full) | inconclusive: 31.6 µM [activator, single point] |  |
| O=C1C[C@@H](C(=O)Nc2ccc(Cl)cc2)[C@@H](c2ccccc2)O1 |  | inactive: 11% |
| Cc1cc(C)cc(N(CCC#N)C(=O)CSC2=Nc3ccccc3C3CC=NN23)c1 (stereo not given) | inconclusive: 39.8 µM [activator, single point] |  |
| COc1ccc2oc(=O)c(C(=O)Oc3ccc(NC(C)=O)cc3)cc2c1 |  | inactive: -2.97% |
| COc1ccc(C(=O)NCCSCc2ccccc2C)cc1 |  | inactive: 26.2% |
| CN(C(=O)c1cccc(NC(=O)Cc2ccc([N+](=O)[O-])cc2)c1)C1CCCCC1 | inconclusive: 22.4 µM [activator, single point] |  |
| COc1ccccc1C(CC(=O)Nc1ccccc1C)c1ccc(OC(C)C)cc1 (stereo not given) | inconclusive: 28.2 µM [activator, single point] |  |

| Structure (SMILES) | Potency | growth rescue (activation) |
| --- | --- | --- |
| CCN(C(=O)COC(=O)c1cn(-c2ccccc2)nc1-c1ccccc1)C1CCS(=O)(=O)C1 (stereo not given) | inconclusive: 35.5 µM [activator, partial curve, poor fit] |  |
| COc1cccc(SCc2noc(C(=O)NCC3CC3)c2C(=O)NCC2CC2)c1 | inconclusive: 22.4 µM [activator, partial curve, poor fit] |  |
| COc1cccc(-c2c(-c3cc(OC)cc(OC)c3)n(C)c3ccc(-c4cccc5[nH]ccc45)cc23)c1 | inconclusive: 39.8 µM [activator, single point] |  |
| Cc1nn2c(C)c(C(=O)Nc3ccccc3)cnc2c1-c1ccccc1 |  | inactive: 18.1% |
| COc1ccc(C2C(C(=O)Nc3cc(Cl)ccc3F)CCC(=O)N2c2ccc(OC)cc2)cc1 (stereo not given) | inconclusive: 17.8 µM [activator, partial curve, poor fit] |  |
| O=C(Cc1cn2ccsc2n1)Nc1nc2c(s1)CN(Cc1ccccc1)CC2 | inconclusive: 35.5 µM [activator, partial curve, poor fit] |  |
| Cc1ccc(C(=O)Nc2ccccc2C(=O)N2CCCCCC2)cc1 | inconclusive: 39.8 µM [activator, single point] |  |
| CCC(=O)N1CCc2cc(Br)cc(S(=O)(=O)CCC(=O)NCc3cccc(OC)c3)c21 |  | inactive: -13.3% |
| Cc1cccc(NS(=O)(=O)c2ccc(C3CCCCC3)cc2)c1 |  | inactive: 21.5% |
| Cc1cccc(N2CCN(C(=O)CCCOc3ccccc3)CC2)c1C | inconclusive: 50.1 µM [activator, single point] |  |
| O=C(CSc1nnc(COc2ccccc2)n1Cc1ccco1)c1ccc2ccccc2c1 | inconclusive: 15.8 µM [activator, partial curve] |  |
| O=C(Nc1ccccc1C(F)(F)F)N1CCC(CN2CCc3ccccc3C2)CC1 |  | inactive: 6.54% |
| Cc1cc(C)cc(-n2c(SCC(N)=O)nc3c([nH]c4ccccc43)c2=O)c1 |  | inactive: 14.8% |
| COc1cccc(CNC(=O)c2cnc(N3CCCCC3)c3ccccc23)c1 |  | inactive: 3.68% |
| CS(=O)(=O)Nc1cccc(C2=NN(S(=O)(=O)c3ccccc3)C(c3ccco3)C2)c1 (stereo not given) | inconclusive: 50.1 µM [activator, partial curve, poor fit] |  |
| c1ccc(-c2csc(NNC3=NCCCCC3)n2)cc1 | inconclusive: 39.8 µM [activator, partial curve, poor fit] |  |
| Cc1onc(-c2ccccc2)c1C(=O)OCC(=O)c1ccccc1 |  | inactive: -20.8% |
| COc1cc(-c2coc3c(C(=O)NCc4ccc(N(C)C)cc4)cccc23)ccc1O | inconclusive: 10 µM [activator, single point] |  |
| C#CCOCCOCCOCCNc1nc(N2CCN(C(=O)CCCCCCCCCCNC(=O)Cn3cc(CCCCCN)nn3)CC2)nc(N2CCN(C(=O)CCCCCCCCCCNC(=O)Cn3cc(C[C@@H](C)O)nn3)CC2)n1 | inconclusive: 7.94 µM [activator, partial curve, poor fit] |  |
| Cc1cc(OCC(=O)Nc2cccc(S(=O)(=O)N3CCCCC3)c2)ccc1Cl | inconclusive: 12.6 µM [activator, partial curve] |  |
